# Sequences with one replicate were seen in a single cluster, so their values are uncertain.
# System: ATP
# Assay: switch fluorescence ratio, 500 uM ATP over buffer (Cy3 cluster intensity, sum of 5 cycles each) (fold (ratio)); higher = stronger signal-on switching upon ATP binding; sequences stand for … in TCGTCGGCAGCGTCAGATGTGTATAAGAGACAGTTTTTTTTTTTTTTTTTTTTTTTTT…TC
# Conditions: aptamer strand: ATP DNA aptamer (quencher-CACCTGGGGGAGTATTGCGGAGGAAGG + anchor), 100 nM annealed; ATP concentration: 500 uM; one replicate
# How it was run: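 Values give the fluorescence ratio for each switch-domain sequence, averaged from per-cluster ratios of summed target-cycle to summed buffer-cycle Cy3 intensity. The Cy3-labelled switching-strand clusters sat on a modified Illumina MiSeq flow-cell, were annealed to 100 nM quencher-labelled ATP aptamer, and were imaged in selection buffer, then after 15 min with 500 uM ATP at 22 °C. Five cycles ran with NaOH stripping and re-annealing between them, and clusters outside 100-1000 RFU were excluded.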
# 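Also: ATP exposure 15 min at 22 °C before imaging.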
row,Sequence,switch fluorescence ratio
1,CGGAGTAATA,4.82
2,CGGAGTAGAC,3.91
3,CGGAGTCGTT,0.997
4,CGGATCTTGA,0.979
5,CGGATGAATA,1.01
6,CGGATGTGAG,1.02
7,CGGATTCTGA,0.967
8,CGGATTGTTC,0.988
9,CGGCAAAGAC,1.81
10,CGGCAACCGT,1.06
11,CGGCACGACC,1.08
12,CGGCACTGTT,0.963
13,CGGCAGAGGT,0.972
14,CGGCAGCACA,2.42
15,CGGCAGTTGT,1.05
16,CGGCATTTAT,0.992
17,CGGCATTTGG,1.05
18,CGGCCAAAAC,1.39
19,CGGCCCGGTG,2.11
20,CGGCCCGTTA,1.04
21,CGGCCGAACC,1.01
22,CGGCCGAGCG,1.01
23,CGGCGACATC,1.09
24,CGGCGAGGGG,1.02
25,CGGCGCAGGG,1.15

row,Sequence,switch fluorescence ratio
1,CGGCGCCCGC,1.1
2,CGGCGCGGTT,1.04
3,CGGCGCTGAG,1
4,CGGCGGACCT,1.11
5,CGGCGGATAT,1.02
6,CGGCGGCTGC,0.99
7,CGGCGGTATT,1.4
8,CGGCGGTCGT,1.04
9,CGGCGTCTTT,0.989
10,CGGCGTGAAT,1.02
11,CGGCTAGCGG,1.01
12,CGGCTATCAT,0.966
13,CGGCTCAGAC,1.11
14,CGGCTCGGCG,0.951
15,CGGCTCTGGA,1.09
16,CGGCTGAATG,1.01
17,CGGCTGGACC,1.03
18,CGGCTTGG,0.978
19,CGGGAAACGC,1.03
20,CGGGAATGGA,1
21,CGGGACCGTT,0.992
22,CGGGACTTCG,1.01
23,CGGGATAGTT,0.974
24,CGGGATCAGA,1.01
25,CGGGATTTTA,1.01

row,Sequence,switch fluorescence ratio
1,CGGGCACGGT,1.02
2,CGGGCAGAGT,1.03
3,CGGGCATCGT,0.999
4,CGGGCCAGCT,1.05
5,CGGGCCCCCT,1.04
6,CGGGCCCGGT,1.05
7,CGGGCCTAAC,1.66
8,CGGGCGATCG,1.05
9,CGGGCGCGCA,0.977
10,CGGGCGGGTT,0.999
11,CGGGCGTG,0.976
12,CGGGCTCTT,0.994
13,CGGGCTTGAA,1.01
14,CGGGGACTCC,1.08
15,CGGGGAGCG,0.961
16,CGGGGAGTTG,1.07
17,CGGGGATCCA,0.988
18,CGGGGATTTA,0.943
19,CGGGGCACGG,0.994
20,CGGGGGGCT,0.992
21,CGGGGGTACT,1.03
22,CGGGGTAATT,1.18
23,CGGGGTCTGC,0.978
24,CGGGGTTTAT,0.981
25,CGGGTACAGC,0.985

row,Sequence,switch fluorescence ratio
1,CGGGTATCCA,0.957
2,CGGGTCAAAT,0.986
3,CGGGTCGTGT,0.968
4,CGGGTCGTTC,0.987
5,CGGGTCTCGC,0.967
6,CGGGTCTGAC,1.03
7,CGGGTCTTCA,0.986
8,CGGGTGCTGG,0.977
9,CGGGTGGCTA,0.982
10,CGGGTGTTTG,0.963
11,CGGGTTACAT,0.961
12,CGGGTTCGGG,1.02
13,CGGGTTCTGT,0.999
14,CGGGTTGCCA,0.995
15,CGGTAAGATA,0.993
16,CGGTAATAAA,1
17,CGGTACATTC,1.02
18,CGGTACCCAG,1.03
19,CGGTACCCTG,1.02
20,CGGTATGAG,0.995
21,CGGTATGCCT,0.969
22,CGGTCAAATG,1
23,CGGTCAATTT,0.953
24,CGGTCCCCAT,1.01
25,CGGTCGGAGC,1.02

row,Sequence,switch fluorescence ratio
1,CGGTCGTCAC,1.03
2,CGGTCTAACT,0.977
3,CGGTCTTGCA,0.993
4,CGGTGAGTAA,0.977
5,CGGTGATCAT,0.966
6,CGGTGCCACT,1.01
7,CGGTGCCTAA,0.978
8,CGGTGCGCTA,0.988
9,CGGTGGCGGC,0.99
10,CGGTGGCTTA,1.02
11,CGGTGTACCT,1.05
12,CGGTGTCGTG,1
13,CGGTTAATT,0.959
14,CGGTTATCTC,0.994
15,CGGTTCATGC,1.05
16,CGGTTGCTCT,1.05
17,CGGTTTCTGA,0.987
18,CGGTTTGAGA,0.953
19,CGGTTTGAGG,0.988
20,CGGTTTTACA,0.973
21,CGGTTTTGAT,0.957
22,CGTAAAGGGT,0.985
23,CGTAAGCTAA,1.15
24,CGTAAGGGCC,1.04
25,CGTACGATGC,1.13

row,Sequence,switch fluorescence ratio
1,CGTACTAACG,1.11
2,CGTACTATAG,1
3,CGTACTATTG,0.999
4,CGTACTGAAC,1.1
5,CGTAGTCCTG,0.998
6,CGTATAGAAA,1.05
7,CGTATAGGTA,0.962
8,CGTATCATTT,0.959
9,CGTATCGGG,1.03
10,CGTATCTTAT,1.02
11,CGTATTGTGG,0.933
12,CGTCAACTGA,1.02
13,CGTCACAAGG,1.04
14,CGTCACATG,1.02
15,CGTCACGTGC,1.08
16,CGTCACGTTG,0.991
17,CGTCAGTCCC,1.03
18,CGTCATATAT,1.13
19,CGTCATCCTG,1.06
20,CGTCATGGCA,0.98
21,CGTCCAAATT,1.24
22,CGTCCAGGTC,1.44
23,CGTCCATTA,1
24,CGTCCCTCCG,2.19
25,CGTCCGGCCC,1.14

row,Sequence,switch fluorescence ratio
1,CGTCCGGCTT,1.01
2,CGTCCTTGGA,0.962
3,CGTCGAGAAA,1.05
4,CGTCGATATG,0.989
5,CGTCGGTGTA,0.971
6,CGTCTCGTCG,0.956
7,CGTCTCTCAA,1.24
8,CGTCTGATTC,1.05
9,CGTCTGTAAT,4.14
10,CGTCTTGTAC,1.16
11,CGTCTTTGTA,0.979
12,CGTGAAAAGG,1.02
13,CGTGAACCTT,1.79
14,CGTGAACTAA,0.992
15,CGTGAAGATT,1.01
16,CGTGAATGAG,0.975
17,CGTGAATGGA,1.02
18,CGTGACAGGA,0.973
19,CGTGACTCTG,0.983
20,CGTGAGATGG,0.978
21,CGTGAGTCAC,0.959
22,CGTGATATCG,1
23,CGTGCAATG,1.04
24,CGTGCCCTGT,1.03
25,CGTGCGCAGT,2.08

row,Sequence,switch fluorescence ratio
1,CGTGCGCGAA,0.954
2,CGTGCGCGG,1
3,CGTGCGGAT,1.02
4,CGTGCGGCGG,0.982
5,CGTGCGGTGA,1.01
6,CGTGCTGTTT,1.68
7,CGTGGAAAGA,1.02
8,CGTGGAAGCG,0.985
9,CGTGGACGGA,1
10,CGTGGATCGG,0.962
11,CGTGGCCAGG,1.05
12,CGTGGCTGGG,0.978
13,CGTGGGTATG,1.01
14,CGTGGTAGCA,0.965
15,CGTGGTCCTC,1.01
16,CGTGGTGTAC,1.08
17,CGTGTAAATG,1.05
18,CGTGTAGTAA,0.995
19,CGTGTCCGCT,1.04
20,CGTGTCTACA,0.988
21,CGTGTGGGGC,1.05
22,CGTGTGTGTG,0.998
23,CGTGTTATGA,0.995
24,CGTGTTGGTG,1.04
25,CGTTAACGCT,1.01
